In the supplement of paper PMC4967469:
By IC50 is meant the dose at which the fit gives 50% viability; where the fit passes the top or lowest dose, that dose stands as a limit. AUC sums up the same curve from the lowest dose to the 256-fold higher top dose; values near 1 show little effect. The top dose, if marked as inferred, is not printed in the source and was worked back from the curve model.

Each cell line was assayed with O=C1NC(=O)/C(=C\c2ccc3nccnc3c2)S1 [AS605240] (assay: Viability of human cancer cell lines after 72 h of drug (GDSC screen)). Settings: top dose inferred.
Description: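 Human cancer cell lines in 384-well plates, medium with 10% serum, drug for 72 h over a 256-fold dose range (nine 2-fold or five 4-fold steps up to the top dose). Adherent lines were fixed and stained with the nucleic acid dye Syto60, suspension lines read with resazurin; signal relative to control wells, capped at 0 and 100%. One two-parameter sigmoid per drug and line, fitted in a mixed model over all curves with the slope shared within a line.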
“KMOE-2 (acute myeloid leukaemia, suspension, top dose 20 µM)” gave an AUC of 0.141 and an IC50 of 0.114 µM. For “KMRC-1 (kidney, adherent, top dose 20 µM)”, the AUC was 0.951 and the IC50 was over 20 µM. “KMRC-20 (kidney, adherent, top dose 20 µM)” showed an AUC of 0.968 and an IC50 of over 20 µM. In the case of “KMS-11 (myeloma, suspension, top dose 20 µM)”, the AUC is reported as 0.962 and the IC50 is reported as over 20 µM. With “KMS-12-BM (myeloma, suspension, top dose 20 µM)” the AUC was 0.91 and the IC50 was 19.7 µM. In the case of “KNS-42 (glioma, adherent, top dose 20 µM)”, the AUC is reported as 0.879 and the IC50 is reported as over 20 µM. In the case of “KNS-81-FD (glioma, adherent, top dose 20 µM)”, the AUC is reported as 0.908 and the IC50 is reported as over 20 µM. “KON (head and neck, adherent, top dose 20 µM)” was tested, and the AUC was 0.981 and the IC50 was over 20 µM. Work on “KOPN-8 (B-cell leukaemia, suspension, top dose 20 µM)” yielded an AUC of 0.815 and an IC50 of 9.04 µM. Work on “KP-1N (pancreas, adherent, top dose 10.24 µM)” yielded an AUC of 0.833 and an IC50 of 7.05 µM. “KP-2 (pancreas, adherent, top dose 20 µM)” showed an AUC of 0.707 and an IC50 of 5.06 µM. “KP-3 (pancreas, adherent, top dose 20 µM)” gave an AUC of 0.783 and an IC50 of 10.1 µM. In the case of “KP-4 (pancreas, adherent, top dose 20 µM)”, the AUC is reported as 0.659 and the IC50 is reported as 3.38 µM. “KP-N-YN (neuroblastoma, adherent, top dose 20 µM)” showed an AUC of 0.959 and an IC50 of over 20 µM. “KP-N-YS (neuroblastoma, adherent, top dose 20 µM)” was tested, and the AUC was 0.941 and the IC50 was over 20 µM. KS-1 (glioma, adherent, top dose 20 µM) showed an AUC of 0.826 and an IC50 of 16.4 µM. With “KU812 (chronic myeloid leukaemia, suspension, top dose 20 µM)” the AUC was 0.876 and the IC50 was 16.9 µM. Cell Line “KU-19-19 (bladder, adherent, top dose 20 µM)” has an AUC of 0.516 and an IC50 of 1.38 µM. With “KURAMOCHI (ovary, adherent, top dose 20 µM)” the AUC was 0.665 and the IC50 was 3.88 µM. In the case of “KY821 (leukaemia, suspension, top dose 20 µM)”, the AUC is reported as 0.969 and the IC50 is reported as over 20 µM. With “KYAE-1 (oesophagus, suspension, top dose 20 µM)” the AUC was 0.775 and the IC50 was 8.8 µM. With “KYM-1 (rhabdomyosarcoma, adherent, top dose 20 µM)” the AUC was 0.991 and the IC50 was over 20 µM. With “KYSE-50 (oesophagus, adherent, top dose 20 µM)” the AUC was 0.9 and the IC50 was over 20 µM. “KYSE-70 (oesophagus, adherent, top dose 20 µM)” showed an AUC of 0.971 and an IC50 of over 20 µM. Cell Line “KYSE-140 (oesophagus, adherent, top dose 20 µM)” has an AUC of 0.94 and an IC50 of over 20 µM. Work on “KYSE-150 (oesophagus, adherent, top dose 20 µM)” yielded an AUC of 0.977 and an IC50 of over 20 µM. In the case of “KYSE-180 (oesophagus, adherent, top dose 20 µM)”, the AUC is reported as 0.907 and the IC50 is reported as over 20 µM. “KYSE-220 (oesophagus, adherent, top dose 20 µM)” was tested, and the AUC was 0.752 and the IC50 was 6.98 µM. Cell Line “KYSE-270 (oesophagus, adherent, top dose 20 µM)” has an AUC of 0.964 and an IC50 of over 20 µM. “KYSE-410 (oesophagus, adherent, top dose 20 µM)” gave an AUC of 0.93 and an IC50 of over 20 µM. Work on “KYSE-450 (oesophagus, adherent, top dose 20 µM)” yielded an AUC of 0.559 and an IC50 of 1.79 µM. For “KYSE-510 (oesophagus, adherent, top dose 20 µM)”, the AUC was 0.985 and the IC50 was over 20 µM. With “KYSE-520 (oesophagus, adherent, top dose 20 µM)” the AUC was 0.891 and the IC50 was over 20 µM. In the case of “L-363 (myeloma, suspension, top dose 20 µM)”, the AUC is reported as 0.891 and the IC50 is reported as 17.7 µM. In the case of “L-428 (Hodgkin lymphoma, suspension, top dose 20 µM)”, the AUC is reported as 0.901 and the IC50 is reported as over 20 µM. “L-540 (Hodgkin lymphoma, suspension, top dose 20 µM)” showed an AUC of 0.901 and an IC50 of over 20 µM. “L-1236 (Hodgkin lymphoma, suspension, top dose 20 µM)” showed an AUC of 0.926 and an IC50 of over 20 µM. In the case of “LAMA-84 (chronic myeloid leukaemia, suspension, top dose 20 µM)”, the AUC is reported as 0.566 and the IC50 is reported as 1.89 µM. With “LAN-6 (neuroblastoma, adherent, top dose 20 µM)” the AUC was 0.875 and the IC50 was over 20 µM. For “LB373-MEL-D (melanoma, adherent, top dose 20 µM)”, the AUC was 0.873 and the IC50 was 18.6 µM. In the case of “LB647-SCLC (small cell lung carcinoma, semi-adherent, top dose 20 µM)”, the AUC is reported as 0.916 and the IC50 is reported as over 20 µM. “LB771-HNC (head and neck, adherent, top dose 20 µM)” showed an AUC of 0.819 and an IC50 of 15.3 µM. In the case of “LB831-BLC (bladder, adherent, top dose 20 µM)”, the AUC is reported as 0.905 and the IC50 is reported as over 20 µM. In the case of “LB996-RCC (kidney, adherent, top dose 20 µM)”, the AUC is reported as 0.983 and the IC50 is reported as over 20 µM. Work on “LB1047-RCC (kidney, adherent, top dose 20 µM)” yielded an AUC of 0.848 and an IC50 of 17.8 µM. “LB2241-RCC (kidney, adherent, top dose 20 µM)” showed an AUC of 0.984 and an IC50 of over 20 µM. In the case of “LB2518-MEL (melanoma, adherent, top dose 20 µM)”, the AUC is reported as 0.373 and the IC50 is reported as 0.546 µM. “LC4-1 (lymphoblastic leukaemia, suspension, top dose 20 µM)” showed an AUC of 0.713 and an IC50 of 5.38 µM. With “LC-1-sq (lung squamous cell carcinoma, adherent, top dose 20 µM)” the AUC was 0.898 and the IC50 was over 20 µM. In the case of “LC-2-ad (lung adenocarcinoma, adherent, top dose 20 µM)”, the AUC is reported as 0.847 and the IC50 is reported as 15.4 µM. With “LCLC-97TM1 (large cell lung carcinoma, adherent, top dose 20 µM)” the AUC was 0.81 and the IC50 was 11.8 µM. For “LCLC-103H (large cell lung carcinoma, adherent, top dose 20 µM)”, the AUC was 0.913 and the IC50 was over 20 µM. “LK-2 (lung squamous cell carcinoma, adherent, top dose 20 µM)” gave an AUC of 0.936 and an IC50 of over 20 µM. “LN-18 (glioma, adherent, top dose 20 µM)” was tested, and the AUC was 0.947 and the IC50 was over 20 µM. For “LN-229 (glioma, adherent, top dose 20 µM)”, the AUC was 0.818 and the IC50 was 11.2 µM. For “LN-405 (glioma, adherent, top dose 20 µM)”, the AUC was 0.873 and the IC50 was over 20 µM. In the case of “LNCaP-Clone-FGC (prostate, adherent, top dose 20 µM)”, the AUC is reported as 0.962 and the IC50 is reported as over 20 µM. “LNZTA3WT4 (glioma, adherent, top dose 20 µM)” was tested, and the AUC was 0.949 and the IC50 was over 20 µM. “LOU-NH91 (lung squamous cell carcinoma, adherent, top dose 20 µM)” showed an AUC of 0.938 and an IC50 of over 20 µM. “LOUCY (T-cell lymphoblastic leukaemia, suspension, top dose 20 µM)” showed an AUC of 0.412 and an IC50 of 0.752 µM. In the case of “LOXIMVI (melanoma, semi-adherent, top dose 20 µM)”, the AUC is reported as 0.885 and the IC50 is reported as 17.6 µM. “LP-1 (myeloma, suspension, top dose 20 µM)” showed an AUC of 0.886 and an IC50 of 15.6 µM. Cell Line “LS-123 (large intestine, adherent, top dose 20 µM)” has an AUC of 0.719 and an IC50 of 6.52 µM. Work on “LS-180 (large intestine, adherent, top dose 20 µM)” yielded an AUC of 0.884 and an IC50 of over 20 µM. “LS-411N (large intestine, adherent, top dose 20 µM)” gave an AUC of 0.935 and an IC50 of over 20 µM. “LS-513 (large intestine, adherent, top dose 20 µM)” was tested, and the AUC was 0.965 and the IC50 was over 20 µM. In the case of “LS-1034 (large intestine, adherent, top dose 20 µM)”, the AUC is reported as 0.977 and the IC50 is reported as over 20 µM. For “LU-65 (large cell lung carcinoma, suspension, top dose 20 µM)”, the AUC was 0.662 and the IC50 was 3.84 µM. With “LU-99A (large cell lung carcinoma, adherent, top dose 20 µM)” the AUC was 0.891 and the IC50 was over 20 µM. “LU-134-A (small cell lung carcinoma, suspension, top dose 20 µM)” showed an AUC of 0.954 and an IC50 of over 20 µM. Cell Line “LU-135 (small cell lung carcinoma, suspension, top dose 20 µM)” has an AUC of 0.989 and an IC50 of over 20 µM. With “LU-139 (small cell lung carcinoma, suspension, top dose 20 µM)” the AUC was 0.756 and the IC50 was 8.65 µM. In the case of “LU-165 (small cell lung carcinoma, suspension, top dose 20 µM)”, the AUC is reported as 0.988 and the IC50 is reported as over 20 µM. For “LXF-289 (lung adenocarcinoma, adherent, top dose 20 µM)”, the AUC was 0.872 and the IC50 was 18.4 µM. “LoVo (large intestine, adherent, top dose 20 µM)” was tested, and the AUC was 0.86 and the IC50 was 17.2 µM. Cell Line “M14 (melanoma, adherent, top dose 20 µM)” has an AUC of 0.797 and an IC50 of 10 µM. With “M059J (glioma, adherent, top dose 20 µM)” the AUC was 0.878 and the IC50 was over 20 µM. With “MC116 (B-cell lymphoma, suspension, top dose 20 µM)” the AUC was 0.894 and the IC50 was 11.4 µM. “MC-CAR (haematopoietic neoplasm, suspension, top dose 20 µM)” gave an AUC of 0.553 and an IC50 of 1.72 µM. “MC-IXC (neuroblastoma, adherent, top dose 20 µM)” was tested, and the AUC was 0.944 and the IC50 was over 20 µM.
